Laboratory results: the supplement of paper PMC8047034
Counter-ions that a name gives are not always drawn. This is one part of the list. Most values come without repeats; read them as rough.

Key:
[1] = test system: OVCAR4; assay: log2 surviving fraction (library drug vs vehicle, or drug + carboplatin vs carboplatin alone; relative to plate median); ovarian cancer lines: OVCAR4 is platinum-sensitive and Ov4Carbo platinum-resistant; higher = more cell survival; conditions: library drug concentration 10 µM, 7 days
[2] = test system: Ov4Carbo; assay: as above; conditions: library drug concentration 10 µM, 7 days

SMILES	log2 surviving fraction ([1]; carboplatin co-treatment 0 µM)	log2 surviving fraction ([1]; carboplatin co-treatment 5 µM)	log2 surviving fraction ([2]; carboplatin co-treatment 0 µM)	log2 surviving fraction ([2]; carboplatin co-treatment 5 µM)
CCNC(=O)CCC/C=C\C[C@@H]1[C@@H](/C=C/[C@@H](O)CCc2ccccc2)[C@H](O)C[C@@H]1O [Bimatoprost]	1.8	-0.0423	0.829	2.28
COc1ccc(Cl)cc1C(=O)NCCc1ccc(S(=O)(=O)NC(=O)NC2CCCCC2)cc1 [Glyburide (Diabeta)]	-1.43	-0.785	-2.22	-0.126
CN1C(C(=O)Nc2ccccn2)=C(O)c2ccccc2S1(=O)=O [Piroxicam (Feldene)]	0.729	0.00714	-0.456	-0.0159
CC(=O)OCC(=O)NCCCOc1cccc(CN2CCCCC2)c1 [Roxatidine acetate HCl]	0.98	0.885	0.867	-1.96
C1N2CN3CN1CN(C2)C3 [Methenamine (Mandelamine)]	-0.0965	0.177	-1.41	-0.262
O=C(O)c1cccnc1 [Niacin (Nicotinic acid)]	0.858	0.173	0.0878	0.516
CC(C)(C)c1nc(-c2cccc(NS(=O)(=O)c3c(F)cccc3F)c2F)c(-c2ccnc(N)n2)s1	-1.62	-0.72	-2.51	-2.19
O.O=[Si]=O.O=[Si]=O.O=[Si]=O.O=[Si]=O.[O]=[Mg].[O]=[Mg].[O]=[Mg]	0.645	1.22	0.329	0.548
Cc1c(O)c(=O)ccn1C [Deferiprone]	0.21	0.105	-0.5	-1.01
CN1CCN2c3ccccc3Cc3ccccc3C2C1 (centres undefined) [Mianserin hydrochloride]	1.3	0.586	0.0202	-0.494
CCOC(=O)O[C@]1(C(=O)OCCl)CC[C@H]2[C@@H]3CCC4=CC(=O)C=C[C@]4(C)[C@H]3[C@@H](O)C[C@@]21C [Loteprednol etabonate]	-10.1	0.132	1.1	0.478
Nc1ccc(C(=O)NCC(=O)O)cc1 [Sodium 4-aminohippurate Hydrate]	-2.11	1.81	-0.657	-1.83
Cc1c(Cl)cccc1Nc1ccccc1C(=O)O [Tolfenamic acid]	-0.0988	-0.578	0.326	-0.734
NS(=O)(=O)c1cc(Cl)c(Cl)c(S(N)(=O)=O)c1 [Dichlorphenamide (Diclofenamide)]	1.8	1.55	0.642	1.07
CN(C(=O)CN(CCO)CC(=O)N(C)C(C)(C)Cc1ccccc1)C(C)(C)Cc1ccccc1 [Oxethazaine]	-5.65	-4.65	-4.24	-3.83
C#C[C@]1(O)C=C[C@H]2[C@@H]3CCC4=CC(=O)CC[C@@H]4[C@H]3CC[C@@]21CC [Gestodene]	-0.321	-1.29	-1.11	-2
CC(=O)CCCCn1c(=O)c2c(ncn2C)n(C)c1=O [Pentoxifylline]	-0.0884	-0.484	-0.281	-0.0585
CC(C)(C)C(=O)C(Oc1ccc(Cl)cc1)n1ccnc1 (centres undefined) [Climbazole]	-1.21	-1.51	-0.602	-1.81
C[N+](C)(C)CCCCCCCCCC[N+](C)(C)C [Decamethonium bromide]	0.032	0.0217	-0.494	-1.59
C[C@H](N[C@@H](CCc1ccccc1)C(=O)O)C(=O)N1CCC[C@H]1C(=O)O [Enalaprilat dihydrate]	0.158	-0.0733	0.608	0.5
NC(=O)N/N=C/c1ccc([N+](=O)[O-])o1 [Nitrofurazone (Nitrofural)]	1.29	0.817	-1.22	-0.363
N=C(N)Nc1ccc(C(=O)Oc2ccc3cc(C(=N)N)ccc3c2)cc1 [Nafamostat mesylate]	0.899	0.648	0.695	0.309
C[C@@H](O[C@H]1OCCN(Cc2nn(P(=O)(O)O)c(=O)[nH]2)[C@H]1c1ccc(F)cc1)c1cc(C(F)(F)F)cc(C(F)(F)F)c1 [Fosaprepitant dimeglumine]	-1.38	-2.01	-2.11	-1.9
CN(CCOc1ccc(CC2SC(=O)NC2=O)cc1)c1ccccn1 (centres undefined) [Rosiglitazone (Avandia)]	1.18	0.73	-0.215	1
CC(=O)O[C@H]1CC[C@@]2(C)C(=CC[C@@H]3[C@@H]2CC[C@]2(C)C(c4cccnc4)=CC[C@@H]32)C1 [Abiraterone Acetate (CB7630)]	-0.997	-0.707	-0.122	0.111
CCOC(=O)C1=C(COCCN)NC(C)=C(C(=O)OC)C1c1ccccc1Cl (centres undefined) [Amlodipine (Norvasc)]	-0.874	-1.7	-0.993	-3
